Experimental data reported in the CheMixHub viscosity set.
This continues a long series; more values of the same kind are listed elsewhere.

Conditions: 100 kPa

CCn1cc[n+](C)c1.N#C[S-]
Conditions | viscosity [mPa·s]
293.15 K | 27.9
298.15 K | 22.68
303.15 K | 19.09
308.15 K | 16.39
313.15 K | 14.18
318.15 K | 12.43
